# PubChem BioAssay AID686978 (National Center for Advancing Translational Sciences (NCATS), 2013)
# The whole screen tested about 420,000 compounds, of which about 64,000 (15%) were called active. The inconclusive results got no clear call from the source; some entries with a clear call stand among them for comparison. Calls follow the shape of the dose curve; as a rule, active = well fitted inhibition curve with a large enough effect; inconclusive = small, poorly fitted or top-dose-only effect; inactive = flat fitted curve, though single readings scatter. No potency is given beside an inconclusive call; the fits are too rough.
# Assay: qHTS for Inhibitors of human tyrosyl-DNA phosphodiesterase 1 (TDP1): qHTS in cells in absence of CPT; also: nearly all actives have a fitted effect of over 55% in size
# Settings: DT40 Tdp1-/- hTDP1 cells, no CPT, ATP luminescence, 48 h; activity change, negative = growth inhibition: at 46.2 µM (top of the series) unless noted
# Procedure, shortened: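 Camptothecin absent (DMSO only). Human TDP1-complemented DT40 knockout cells, 400 cells/well, 37 °C for minimum 48 hr; ATP measured via CellTiter-Glo, 30 min dark incubation, luminescence.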
# % is scaled to controls: 0 for no effect and ±100 for the full control effect; potency is read from the fitted curve at half-maximal effect; tags tell the direction and shape of the fitted curve.
Structure (SMILES),Potency,"activity change, negative = growth inhibition"
Cc1ccc(C)c(NC(=O)CN2C(=O)c3cccc4cccc2c34)c1,"inconclusive [inhibitor, single point]",–
COc1ccc(Br)cc1/C=N/n1nnnc1N,inactive,–
C=CCN(CC(=O)NCc1ccccc1)C(=O)c1csnn1,–,inconclusive: -31% [inhibitor]
CC(Sc1ncnc2sccc12)C(=O)Nc1ccc(S(N)(=O)=O)cc1 (stereo not given),"inconclusive [inhibitor, single point]",–
CCc1ccc(Nc2nnc(SCC(=O)N(C)CC(=O)Nc3ccccc3CC)s2)cc1,active: 14.6 µM,–
Cc1ccc(CNc2oc(-c3ccco3)nc2C#N)cc1,"inconclusive [inhibitor, single point]",–
CCOC(=O)C1=NN(c2ccccc2)C(=O)/C1=C\c1ccc(N(C)C)cc1,"inconclusive [inhibitor, single point]",–
Cc1ccc(C(=O)N/N=C/c2cc(C)n(-c3ccc(Br)cc3)c2C)cc1[N+](=O)[O-],"inconclusive [inhibitor, partial curve, poor fit]",–
O=C(NN=Cc1cccc2ccccc12)C1CC1,"inconclusive [inhibitor, single point]",–
CCCCNC(=O)NC1(C(F)(F)F)Oc2ccccc2O1,"inconclusive [inhibitor, single point]",–
COCCNC(=O)c1ccc(-n2c(SCc3cccnc3)nc3ccccc3c2=O)cc1,–,inconclusive: -32.2% [inhibitor]
CCN1/C(=C/c2cc[n+](C)cc2)C=Cc2cc(C)ccc21,active: 0.184 µM,–
COCCN1C(=O)c2ccccc2C(C(=O)Nc2ccc3c(c2)OCCO3)C1c1ccc(F)cc1 (stereo not given),"inconclusive [inhibitor, single point]",–
CC=CCn1c(SCc2ccccc2)nc2c1c(=O)[nH]c(=O)n2C,"inconclusive [inhibitor, single point]",–
Cc1cccc(Cn2ccn(Cc3ccc(Cl)cc3)c(=O)c2=O)c1,inactive,–
COc1ccc2c(c1)[C@H]1[C@H](CO2)[C@H](c2ccccc2)[C@]2(C)C(=O)Nc3ccc(F)cc3C(=O)N12,"inconclusive [inhibitor, single point]",–
O=C(NCc1ccccc1)C1c2ccccc2OCC(=O)N1Cc1cccnc1 (stereo not given),inactive,–
O=c1c2ccccc2n2c(-c3ccccc3O)nnc2n1Cc1ccc(F)cc1,inactive,–
CNC(=O)C(C)N1c2cccc3cccc(c23)S1(=O)=O (stereo not given),inactive,–
O=C(O)C1CCN(Cc2oc(CO)cc(=O)c2O)C1 (stereo not given),"inconclusive [inhibitor, single point]",–
